To fix the notation:
B1: LINE1-mini (parent)
chain: GGCAGAGCUCAACACAGCGUGGCAAAGUGGCUGUGGCUAGACUGCC

The source gives no read counts; variants with many changes may rest on few reads.

The variants in this data set derive from B1. Description: self-cleavage, relative activity (ratio to wild type); higher = more cleavage; in vitro, sequencing; the parent is a self-cleaving ribozyme.
As to C3A G22C G40C G44A, the self-cleavage came to 0.04.
In the case of C3A A6G C46A, the self-cleavage was determined as 0.12.
With C3A C13U C18U G27A C31U C37A, the self-cleavage worked out at 0.18.
C3A G21A C42G: the self-cleavage amounted to 0.03.
Consider C3A A16C C18G, for which the self-cleavage came out at 0.04.
In the case of C3A U9G G35U G44U, the self-cleavage amounted to 0.11.
With C3A C10A G36C, the self-cleavage amounted to 0.07.
On to C3A A11U A16C A24U A26U C46U, for which the self-cleavage turned out to be 0.02.
On to C3A C13U G21A U28A G30U G44A C46U, for which the self-cleavage was determined as 0.05.
For the variant C3A U28G G36A, the self-cleavage is 0.29.
In the case of C3A U9C A12C C18U U28G C31U, the self-cleavage was determined as 0.02.
As to C3A G17A C37A, the self-cleavage is 0.11.
For the variant C3A A25G G29C G33A U34G, the self-cleavage stood at 0.03.
As for C3A C15U G19U, the figure is 0.18.
As for C3A U34G G40A, the self-cleavage turned out to be 0.05.
In the case of C3A C18A C31A A41U, the self-cleavage is 0.04.
In the case of C3A C10U A12U A16U A26U A39G, the self-cleavage was determined as 0.04.
As to C3A A11U G33C, the self-cleavage was 0.03.
With C3A G5C G19A C23G C37A A41C G44C, the self-cleavage was 0.02.
As for C3A A14U G27C G33C, the self-cleavage came out at 0.1.
Consider C3A A6U C45A, for which the self-cleavage came to 0.38.
For the variant C3A C8A U38C A41C, the self-cleavage is 0.62.
Regarding C3A G27U G44A, the self-cleavage amounted to 0.9.
In the case of C3A A24G C31A A39G, the self-cleavage worked out at 0.13.
For C3G A4U C10A, the self-cleavage came to 0.03.
C3A G7A C15G G19U: the self-cleavage came out at 0.15.
Take C3A G27U G33C: the self-cleavage worked out at 0.06.
Take C3G A4G C10G G33U G40U: the self-cleavage stood at 0.01.
As for C3A G7A A12C C13A A39G, the self-cleavage turned out to be 1.08.
Consider C3A A4G C31U G33A, for which the self-cleavage is 0.05.
In the case of C3A A4G C15U A16U U32G, the self-cleavage stood at 0.07.
With C3A A12C A16G G22A A24G A25U, the self-cleavage amounted to 0.02.
For the variant C3A G5U C10U A11U A14C G22U, the self-cleavage is 0.07.
Regarding C3G A4C C10A G22U A39G U43G, the self-cleavage was found to be 0.03.
C3A G21A C23A A25C C31G: the self-cleavage is 0.08.
As to C3A A24C A26C A39G, the self-cleavage worked out at 0.23.
Regarding C3A G5C U28C A41C, the self-cleavage amounted to 0.05.
Turning to C3A G19A U28G G36C A39C U43C, the self-cleavage stood at 0.13.
On to C3A G7C G44U, for which the self-cleavage stood at 0.2.
For the variant C3A C8A G27U C31U, the self-cleavage was 0.44.
Consider C3A G7A C13A G22U, for which the self-cleavage turned out to be 0.05.
Take C3A A12U A14G G30A: the self-cleavage was determined as 0.21.
Regarding C3A G5C A25U, the self-cleavage was 0.19.
To C3A C8U C37U belongs 0.45; to C3A A6U A39G G40U, 0.2.
As for C3A C8A G40U G44C, the self-cleavage stood at 1.06.
Regarding C3A A11G A25G G33A U34A U38C, the self-cleavage was determined as 0.
Take C3A C37G G44C: the self-cleavage was determined as 0.01.
Consider C3G A4G C8U A16C G17U G36A C37A G40A, for which the self-cleavage turned out to be 0.05.
In the case of C3A A6G U9G A11U C15U A16U G21A A24U A25U, the self-cleavage was found to be 0.03.
For C3A C8A G35C U38C A41U U43G, the self-cleavage was 0.55.
On to C3A C13G G22U G27U C42A, for which the self-cleavage was 0.34.
Turning to C3A C10U A24U U28C G35A, the self-cleavage was 0.08.
Consider C3G A4C C31A C46G, for which the self-cleavage came to 0.07.
As for C3A C15A G29A, the figure is 0.03; as for C3A A6C G19A G27U, 0.46; as for C3A A11C A14C U20G G40C G44A, 0.01.
As for C3A C10U C18U, the figure is 0.04; as for C3A A14U C15A, 0.41.
Take C3A G5A A6C A16U: the self-cleavage was determined as 0.22.
Consider C3A G5C C13A C18A A24U, for which the self-cleavage is 0.02.
To C3A C23G G30C belongs 1.06; to C3A A11G C18U U38A, 0.08; to C3A U20G A26U A41C C45G, 0.03.
To C3A A4G A26G C37G belongs 0.03.
On to C3A U9G G21U G33C, for which the self-cleavage was determined as 0.02.
Take C3A G19C G22U A24G A25U C31G C46A: the self-cleavage worked out at 0.29.
As to C3A C8G G22A C23A, the self-cleavage came out at 0.03.
To C3A C10U A39G belongs 0.12; to C3A G17U G19A, 0.14; to C3G A4C C23G G33C A39U, 0.03.
As for C3A G17A G19U C45A C46G, the self-cleavage stood at 0.13.
For C3A A11C G19A, the self-cleavage amounted to 0.01.
Turning to C3A G7A U34A, the self-cleavage was 0.21.
As for C3A U38A G44U, the figure is 1.48; as for C3A G19A G35C, 0.15.
With C3A G5U A14U, the self-cleavage is 0.08.
C3G A4U A11G G27U C45A: the self-cleavage amounted to 0.03.
For the variant C3A G5U G7U U9C A11G, the self-cleavage was found to be 0.01.
Consider C3A G21C G44C, for which the self-cleavage came to 0.8.
Take C3A A11U U34A: the self-cleavage is 0.01.
For the variant C3A C15A A41U, the self-cleavage was 0.14.
Take C3A G5C A39C: the self-cleavage worked out at 0.28.
As for C3A U9C A11G A12C A14U C18G, the figure is 0.
In the case of C3A C18U A26U C37G, the self-cleavage came to 0.01.
To C3A G21A G27C belongs 1.32.
As for C3A A12C G17A C23U G40C, the figure is 0.03; as for C3A A16U U20A A25C G35U, 0.06; as for C3A U9G C13G, 0.17.
Turning to C3A A6C G7A C13U G27C, the self-cleavage turned out to be 1.5.
Take C3A G29U U38G A39C: the self-cleavage was 0.11.
In the case of C3A G21C G36C, the self-cleavage worked out at 0.24.
To C3A A11G G40U C46U belongs 0.14; to C3G A4G G5A G22U, 0.11; to C3A C18A G27A C45G, 0.07.
In the case of C3A A14C C42U, the self-cleavage was determined as 0.05.
As for C3A G7C U9A A16C, the self-cleavage was found to be 0.16.
Turning to C3A U20G U28A U34G C42A, the self-cleavage came to 0.03.
For C3A A6U A11G C13G, the self-cleavage was 0.12.
On to C3A A12C G17A G22A G35A G36C, for which the self-cleavage came to 0.01.
For C3A A4G C31U G44U, the self-cleavage is 0.02.
With C3A A16U C23G A26C, the self-cleavage was 0.11.
Turning to C3A A26G C45G, the self-cleavage amounted to 0.58.
In the case of C3A U9A C18U, the self-cleavage was 0.8.
With C3A U20C C23A A26G, the self-cleavage stood at 0.09.
For C3A G22C U34G, the self-cleavage turned out to be 0.1.
C3A A14C U28A C37U: the self-cleavage is 0.69.
For the variant C3A A4G C13A, the self-cleavage turned out to be 0.25.
For the variant C3A C23U A41G, the self-cleavage amounted to 0.37.
With C3G A4U C15A A26C, the self-cleavage was 0.06.
As for C3A C23A U34C, the figure is 0.2; as for C3A C13A C37A C46U, 0.24.
In the case of C3A A16G G21A G33A, the self-cleavage is 0.18.
In the case of C3A G27C U34C C37G G44C, the self-cleavage came out at 0.01.
As for C3A A4U C46A, the figure is 0.04.
Regarding C3A U9C G27U C42U G44A, the self-cleavage is 0.71.
Turning to C3A C37A U38A, the self-cleavage was 0.23.
To C3A C31G A41C C46A belongs 0.09; to C3A U20A G21A, 0.68.
For the variant C3A G29C C42A, the self-cleavage stood at 0.13.
Take C3A A16G G30A: the self-cleavage is 0.24.
With C3A G5A U20A G33U, the self-cleavage amounted to 0.13.
To C3A A14G A41U belongs 0.32; to C3A G17U U20C, 0.25; to C3A A14G A24U, 0.32.
In the case of C3A U9A A14G G29A, the self-cleavage came out at 0.24.
In the case of C3A A6G C23A A39G C45A, the self-cleavage came to 0.01.
Take C3A A39U G40U: the self-cleavage came to 0.25.
For the variant C3A U9A A14U C23G G40A, the self-cleavage was 0.59.
As for C3A C18U C37A, the figure is 0.93.
For C3A A25U G27U G40U, the self-cleavage was 0.06.
For C3A C8U G21A, the self-cleavage amounted to 0.26.
In the case of C3A C10A A12U A41U C46A, the self-cleavage turned out to be 0.03.
For the variant C3A A12G C15U G21U A24U G40U, the self-cleavage was 0.05.
As to C3A C15U C42G C45G, the self-cleavage was determined as 0.02.
Regarding C3A A4G C10U, the self-cleavage worked out at 0.18.
C3A A12C G17U U20A A24G G33C: the self-cleavage stood at 0.02.
To C3A A4C C45A belongs 0.11; to C3G A4G G27A U32C, 0.09; to C3A U20A C31A U38A, 0.17.
To C3A G22C G35U belongs 0.15.
With C3A U20A G44A, the self-cleavage amounted to 0.38.
For the variant C3A G7A C8U A24G A26U G35U U38G, the self-cleavage was 1.6.
On to C3A C13A U28C G33C, for which the self-cleavage was 0.09.
Consider C3A C18U A26G, for which the self-cleavage was 0.44.
Take C3A U20A G30U: the self-cleavage amounted to 0.18.
For C3A C15G A41C, the self-cleavage was 0.08.
Turning to C3A U38C G40A U43A, the self-cleavage is 0.02.
With C3A A6G G33A, the self-cleavage was 0.09.
Take C3A A11C G21C C37G U38A A41C: the self-cleavage came to 0.
C3A A41G G44A: the self-cleavage worked out at 0.09.
With C3A C31G G40U A41U C45A, the self-cleavage stood at 0.01.
Consider C3A U20A A39G, for which the self-cleavage was found to be 0.36.
As for C3A A4U U9C A12U A14C C23G, the self-cleavage was 0.
For the variant C3A G22A G29A, the self-cleavage is 0.57.
Regarding C3A A4C C13A G17A A26G, the self-cleavage stood at 0.37.
To C3A A6C G7A G22C C31U U32A belongs 0.01; to C3A G22A U43C, 0.58; to C3A C15G G19U, 0.04.
With C3A G5U G33C, the self-cleavage turned out to be 0.23.
As for C3A A16U G21A G22A A24U G33U, the self-cleavage came to 0.56.
In the case of C3A U20A G21U G27U C46G, the self-cleavage turned out to be 0.18.
Take C3A A14C G21U G44C: the self-cleavage was found to be 0.06.
In the case of C3A A25U G29U A39C, the self-cleavage came to 1.12.
As to C3A A11U G33U G44A, the self-cleavage turned out to be 0.08.
To C3G A4U G5A G40C belongs 0.04; to C3A A24C U32A, 0.1.

The record behind these values is the RNAGym collection of RNA variant scans (doi:10.7554/elife.90254).
